From publication PMC4336329 (PLoS ONE, 2015) come the findings set out here.

Each structure is given as a SMILES string. In all, about 310,000 compounds went through this assay and about 14,000 (4.5%) showed an effect of 50% or more. Effects have a minus sign here. The list shows a part of the results.
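Also: peak tail current of the secondary pulse compared with the same well before compound.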

The assay deals with human ether-à-go-go-related gene (hERG) potassium channel (human, UniProt Q12809). Put plainly: primary screen, population patch clamp on CHO cells stably expressing hERG.
Sequence of human ether-à-go-go-related gene (hERG) potassium channel (Q12809 whole entry, looked up): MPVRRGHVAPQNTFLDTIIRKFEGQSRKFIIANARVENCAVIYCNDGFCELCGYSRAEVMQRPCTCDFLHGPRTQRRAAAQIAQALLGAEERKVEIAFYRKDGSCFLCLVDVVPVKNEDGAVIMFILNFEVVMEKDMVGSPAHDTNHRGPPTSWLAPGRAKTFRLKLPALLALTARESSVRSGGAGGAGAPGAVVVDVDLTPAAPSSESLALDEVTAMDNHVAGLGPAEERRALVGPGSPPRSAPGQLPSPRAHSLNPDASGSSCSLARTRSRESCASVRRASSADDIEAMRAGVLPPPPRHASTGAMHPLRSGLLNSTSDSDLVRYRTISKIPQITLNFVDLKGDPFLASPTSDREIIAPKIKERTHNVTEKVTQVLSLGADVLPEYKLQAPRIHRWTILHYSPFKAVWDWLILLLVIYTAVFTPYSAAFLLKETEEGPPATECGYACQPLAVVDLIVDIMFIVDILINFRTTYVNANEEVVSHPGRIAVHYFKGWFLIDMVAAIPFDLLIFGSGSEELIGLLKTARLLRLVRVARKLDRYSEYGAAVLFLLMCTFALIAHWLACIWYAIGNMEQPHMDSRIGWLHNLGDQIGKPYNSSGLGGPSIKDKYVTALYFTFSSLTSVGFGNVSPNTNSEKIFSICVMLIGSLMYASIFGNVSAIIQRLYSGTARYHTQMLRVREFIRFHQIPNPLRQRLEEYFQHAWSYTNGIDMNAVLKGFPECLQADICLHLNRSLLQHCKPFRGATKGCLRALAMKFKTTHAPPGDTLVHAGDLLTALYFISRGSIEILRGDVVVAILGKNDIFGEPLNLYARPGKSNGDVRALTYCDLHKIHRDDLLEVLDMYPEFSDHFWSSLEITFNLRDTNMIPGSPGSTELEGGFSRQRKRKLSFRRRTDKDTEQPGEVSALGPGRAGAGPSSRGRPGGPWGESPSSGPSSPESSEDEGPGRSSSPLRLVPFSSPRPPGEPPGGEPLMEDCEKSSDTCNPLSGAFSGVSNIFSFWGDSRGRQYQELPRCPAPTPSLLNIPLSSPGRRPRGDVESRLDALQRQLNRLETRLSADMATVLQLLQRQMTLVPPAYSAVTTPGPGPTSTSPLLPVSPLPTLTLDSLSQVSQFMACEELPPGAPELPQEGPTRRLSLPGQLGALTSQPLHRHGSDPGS
In the case of `COc1cc(C2c3[nH]c4ccccc4c3C[C@H]3C(=O)N(C4CC4)CC(=O)N23)ccc1OC(C)C` (some centres unmarked), the “hERG current change (%, negative = inhibition) at 10uM” value is on record as -36.9%.

As to `COc1ccc(/C=N/NC(=S)Nc2ccccc2)cc1COc1ccc(F)cc1`, the “hERG current change (%, negative = inhibition) at 10uM” value is listed as -4.64%.

For `c1ccc2oc(C3=NNC(=NC4CC4)SC3)cc2c1`, the “hERG current change (%, negative = inhibition) at 10uM” value was -58.5%. The same measure for `c1ccc(Cc2nn3c(Cn4cnc5ccccc54)nnc3s2)cc1`: -17.7%. As for `NC(=O)c1ccccc1NCC(=O)c1ccc(F)cc1`, the figure is -35.2%; as for `O=S(=O)(c1ccc(F)cc1)c1nc(-c2ccco2)oc1Nc1ccccc1`, -9%; as for `CC(C)(C)c1ccc(S(=O)(=O)NCC(=O)N2CCCC2)cc1`, 7.42%. The same measure for `Cc1cc(-c2ccccc2)nc(N(C)NC(=O)c2ccc(Cl)cc2)c1S(C)(=O)=O`: 0.236%. `CC1=C(C)CC(C(=O)NCC(=O)c2ccccc2)C(C(=O)O)C1` (centres unmarked): the “hERG current change (%, negative = inhibition) at 10uM” value was -3.55%. Consider `CN(C)c1ccc(N/C=C/C(=O)c2ccccc2)cc1`, for which the “hERG current change (%, negative = inhibition) at 10uM” value is recorded as 4.66%.

In the case of `Cc1ccccc1C(=O)c1cccn1CC(=O)NCc1ccc(Cl)cc1`, the “hERG current change (%, negative = inhibition) at 10uM” value was -7.19%. As to `COc1ccc(OC)c(NC(=O)CNC(c2ccccc2)c2ccccc2)c1`, the “hERG current change (%, negative = inhibition) at 10uM” value amounted to 14.1%. As for `CCOc1ccc2c(c1)ncn2Cc1ccccc1`, the “hERG current change (%, negative = inhibition) at 10uM” value worked out at 8.33%.

For the compound `O=C(c1ccco1)c1cc2c(ccc3ccccc32)oc1=O`, the “hERG current change (%, negative = inhibition) at 10uM” value was determined as 2.17%. For `CCN(c1ccc(OC)cc1)S(=O)(=O)c1csc(C(N)=O)c1`, the “hERG current change (%, negative = inhibition) at 10uM” value was found to be 6.68%.

With `Cn1c(=O)c2c(nc(N3CCOCC3)n2CCSc2ncccn2)n(C)c1=O`, the “hERG current change (%, negative = inhibition) at 10uM” value was found to be 0.639%. As to `COc1ccc(NC(=O)c2nn(C)c(=O)c3ccccc23)cc1S(=O)(=O)Nc1ccccc1Cl`, the “hERG current change (%, negative = inhibition) at 10uM” value turned out to be 26%.

On to `CCn1cnnc1SCC(=O)NCC1COc2ccccc2O1` (centres unmarked), for which the “hERG current change (%, negative = inhibition) at 10uM” value is 13.6%. The same measure for `CCC1CCc2sc(C(=O)O)cc2C1` (centres unmarked): -15.7%; for `CC(C)CNS(=O)(=O)c1cc(C(=O)OCC(=O)N2CCOCC2)c(Cl)cc1Cl`: -17.8%; for `CN(Cc1cnn(C)c1)S(=O)(=O)c1cccc([N+](=O)[O-])c1`: 6.52%. Consider `CCC(Sc1nc2cc3c(cc2c(=O)n1Cc1ccco1)OCO3)C(=O)Nc1cccc(OC)c1` (centres unmarked), for which the “hERG current change (%, negative = inhibition) at 10uM” value was -4.76%. As for `Cc1sc2ncnc(OCC(=O)c3ccc(S(=O)(=O)N4CCCC4)cc3)c2c1C`, the figure is -4.53%; as for `O=C(O)c1cc(NN=Nc2ccc(Br)cc2)cc([N+](=O)[O-])c1`, 10.7%; as for `COc1ccc(C(=O)NNC2=NC(C)(C)Cc3ccccc32)cc1`, 20.6%.

Turning to `O=C(CNC(=O)c1ccc(OC(F)F)cc1)NC1CCCc2ccccc21` (centres unmarked), the “hERG current change (%, negative = inhibition) at 10uM” value is -16.2%. As for `Nc1nc(SCC(=O)NC2CCCc3ccccc32)n[nH]1` (centres unmarked), the figure is -10.1%; as for `CCn1c(SCC(=O)Nc2ccc(F)cc2)nc2ccccc2c1=O`, 1.12%. On to `CCCc1cc(=O)oc2c(C)c(OCC(=O)Nc3cccnc3)ccc12`, for which the “hERG current change (%, negative = inhibition) at 10uM” value is -63.6%.

Turning to `CCOc1ccccc1CN1CCN(C2CCOCC2)CC1CCO` (centres unmarked), the “hERG current change (%, negative = inhibition) at 10uM” value came out at 9.47%. As to `CCOC(=O)c1cnc(SC2CC(=O)N(c3cccc(OC)c3)C2=O)nc1N` (centres unmarked), the “hERG current change (%, negative = inhibition) at 10uM” value is given as -17.4%. As for `CN(C)CCNC(=O)COc1cccc(Cl)c1`, the figure is 8.52%; as for `COc1ccc(-n2c(=S)[nH]c3ccccc3c2=S)cc1`, 32%; as for `CC(C)[C@H](NC(=O)CCCn1nnc2ccccc2c1=O)C(=O)O`, 20.9%. Turning to `COc1ccc(S(=O)(=O)NCCCCCC(=O)NCCCN2CCOCC2)cc1`, the “hERG current change (%, negative = inhibition) at 10uM” value was 2.99%.

As to `COc1cc(/C=C2\SC(N3CCCCC3)=NC2=O)cc(OC)c1OC`, the “hERG current change (%, negative = inhibition) at 10uM” value is recorded as 5.97%. In the case of `Cn1c2ccccc2c2c(C(=O)O)cn(C3CCCC3)c(=O)c21`, the “hERG current change (%, negative = inhibition) at 10uM” value is on record as 7.78%. As for `Cn1nc(CC(=O)NCCN2C(=O)CSC2=O)c2ccccc2c1=O`, the figure is -29.5%; as for `O=[N+]([O-])c1nn(-c2ccccc2)n(O)c1=NCc1ccc2c(c1)OCO2`, -14.6%; as for `COCCNC(=O)C(c1cccs1)N(Cc1cccs1)C(=O)Cn1nnc2ccccc21` (centres unmarked), -12.3%. The same measure for `O=C(NCCOC(=O)c1ccncc1)c1ccccc1`: 5.91%. As for `CCCCN1C(=O)C(=Nc2cccc3cnccc23)c2ccccc21`, the figure is -17.2%; as for `CC(C)(C)NC(=O)c1ccnc(C(C)(C)C)c1`, -0.115%; as for `CC(=O)Nc1ccc(OCC(=O)N2CCc3ccccc3C2)cc1`, 16.1%.

`Cc1cc(C)c(NC(=O)CSc2nc3ccccc3c(=O)n2CCCN2CCOCC2)c(C)c1`: the “hERG current change (%, negative = inhibition) at 10uM” value is listed as -47.6%. With `Cc1cccc(NC(=O)c2cc(S(=O)(=O)N(C)c3ccc(F)cc3)ccc2Cl)n1`, the “hERG current change (%, negative = inhibition) at 10uM” value is -22%. The same measure for `COc1ccc(S(=O)(=O)Nc2cccc(S(=O)(=O)N3CCCCCC3)c2)cc1`: -35.4%; for `CC(CCc1ccccc1)NC(=O)c1ccncc1` (centres unmarked): 7.47%; for `O=C(NC(=O)N1CCN(c2ccc([N+](=O)[O-])cn2)CC1)c1ccccc1F`: -24.5%. As for `CCOc1ccc(CNC(=O)C(C)n2nc(C)c3c(C)n(-c4ccccc4)nc3c2=O)cc1` (centres unmarked), the figure is -16.1%; as for `CC1CCCCN1C(=O)CSCC(=O)Nc1nc(-c2cccs2)cs1` (centres unmarked), -13.6%. Take `O=C(NC1CCCCC1)N(CCN1CCOCC1)Cc1cc2cc3c(cc2[nH]c1=O)OCCO3`: the “hERG current change (%, negative = inhibition) at 10uM” value was -3.53%. The same measure for `Cc1ccc(C(=O)CN(CCC(=O)O)S(=O)(=O)c2ccc([N+](=O)[O-])cc2)cc1`: -25.7%. As for `COc1cc(C2(c3ccc(O)c(OC)c3)C(=O)Nc3c(Br)cc(Br)cc32)ccc1O`, the figure is 20.4%; as for `CCc1ccc(NC(=O)NCc2cccnc2)cc1`, -4.49%; as for `CCCCN(c1ccccc1)S(=O)(=O)c1cccc(C(=O)O)c1`, 5.27%.
